The target of assay [1] is T1, H6 flagella (polymeric flagellin) from E. coli O127:H6 (E. coli O127:H6, UniProt B7USU2 1-548).
T1 sequence: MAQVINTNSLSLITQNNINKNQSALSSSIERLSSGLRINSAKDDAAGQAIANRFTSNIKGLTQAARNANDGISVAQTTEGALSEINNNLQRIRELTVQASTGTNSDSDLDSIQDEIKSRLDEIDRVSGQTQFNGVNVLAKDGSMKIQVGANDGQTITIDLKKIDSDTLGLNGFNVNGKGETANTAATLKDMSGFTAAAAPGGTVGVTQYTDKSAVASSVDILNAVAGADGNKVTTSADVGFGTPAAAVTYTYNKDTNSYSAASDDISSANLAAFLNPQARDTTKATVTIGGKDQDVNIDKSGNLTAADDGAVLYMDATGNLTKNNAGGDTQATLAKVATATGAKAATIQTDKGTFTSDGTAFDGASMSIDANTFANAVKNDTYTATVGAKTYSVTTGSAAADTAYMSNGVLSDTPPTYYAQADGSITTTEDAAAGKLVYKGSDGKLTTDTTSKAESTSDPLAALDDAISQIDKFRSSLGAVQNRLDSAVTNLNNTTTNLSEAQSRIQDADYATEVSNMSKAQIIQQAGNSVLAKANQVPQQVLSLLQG
The experiment in a line: ELISA. (In an ELISA, binding on a coated surface is turned into a signal by an enzyme label.)

Assay [2] deals with T2, H48 flagella (polymeric flagellin) from commensal E. coli K12:O175:H48 (E. coli K12:O175:H48, UniProt P04949 1-498).
T2 sequence: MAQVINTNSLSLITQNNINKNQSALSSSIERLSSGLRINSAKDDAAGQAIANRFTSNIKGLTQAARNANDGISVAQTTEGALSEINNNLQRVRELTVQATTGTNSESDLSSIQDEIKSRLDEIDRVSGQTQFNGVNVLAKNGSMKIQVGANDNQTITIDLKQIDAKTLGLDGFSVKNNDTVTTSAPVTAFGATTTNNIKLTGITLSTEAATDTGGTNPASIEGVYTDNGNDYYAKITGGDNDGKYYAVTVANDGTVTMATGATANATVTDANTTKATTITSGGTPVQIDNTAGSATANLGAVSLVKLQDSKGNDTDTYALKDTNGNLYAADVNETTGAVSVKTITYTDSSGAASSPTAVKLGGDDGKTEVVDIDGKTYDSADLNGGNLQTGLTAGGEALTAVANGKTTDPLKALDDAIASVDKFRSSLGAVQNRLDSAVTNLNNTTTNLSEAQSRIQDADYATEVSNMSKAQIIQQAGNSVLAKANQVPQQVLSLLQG
The experiment in a line: ELISA.

These results are taken from doi:10.1101/2020.02.12.945204 (bioRxiv, 2020).

B1: recombinant human cofilin-1 (natural protein)
chain: not shown
As to B1, the binding result in assay [1] and in assay [2] was “binds” each time.
